From ChEMBL document CHEMBL4888484, “Replenishing the malaria drug discovery pipeline: Screening and hit evaluation of the MMV Hit Generation Library 1 (HGL1) against asexual blood stage Plasmodium falciparum ,using a nano luciferase reporter read-out” (2022)
Several values for one entry are separate records, joined by “and”; a condition that tells them apart may be missing. Equal entries are not always repeated. Out of some 150,000 compounds screened, about 540 (0.36%) showed an effect of 50% or more. The list shows a part of the results.

Tested on: Plasmodium falciparum
Assay: Primary screen in NF54 nanoGlo assay, in single point, at 2uM, 72h; a lower Z score goes with more inhibition
Format: functional, Erythrocyte
Conditions: timepoint 72 hour

Row | Compound | % Inhibition | Z score | % Inhibition (2 µM)
1 | CN(C)CCN(Cc1cccs1)C(=O)Nc1cc(Cl)ccc1N(C)C | -5% | 0.74 | 
2 | Clc1ccc(Cl)c(-c2ccc(CNCCOc3ccccn3)o2)c1 | 30% | -0.61 | 
3 | COC(=O)[C@H]1CCc2nnc(COc3ccc(C(C)(C)C)cc3)n2C1 | -20% | 3.74 | 
4 | Cc1ccc(CCNC(=O)[C@@H]2CC[C@H](NS(=O)(=O)N(C)C)C2)s1 | -3% | 0.5 | 
5 | CCc1c(C)sc2c1CCN(C(=O)Nc1ccc(C)cc1)[C@@H]2c1ccccc1 | -16% | 1.59 | 
6 | Cn1cc(C(=O)NC[C@](O)(c2ccoc2)c2ccco2)nn1 | -16% | 2.81 | 
7 | CCOc1ccc2nnc(CNC(=O)N[C@@H](C)CC)n2n1 | -17% | 3.36 | 
8 | COc1ccc(Nc2nc(C)c3ncn(-c4ccc(OC)cc4)c3n2)cc1 | -9% | 1.45 | 
9 | COC(=O)[C@H](NCC(=O)N1CCCC1)c1ccccc1C | -12% | 1.54 | 
10 | O=C(NCC#CCOc1ccc2c(c1)OCO2)c1cccc(-n2cnnn2)c1 | -11% | 1.45 | 
11 | Cc1nsc(N[C@H]2CCc3ccccc32)n1 | -1% | 0.13 | 
12 | CC[C@H](C)CS(=O)(=O)NC1CCN(c2nccn(CC)c2=O)CC1 | -23% | 2.1 | 
13 | COCCn1cc(NC(=O)CC2CCN(CC(F)F)CC2)cn1 | -9% | 1.68 | 
14 | CCn1cc(C(=O)NCC23CCCN2CCC3)c(C(C)C)n1 | -22% | 2.39 | 
15 | CCn1cnnc1C1CCN(c2ncnc3cccc(C)c23)CC1 | -3% | 0.49 | 
16 | C[C@H](NC(=O)C1CCCC1)c1nnc2n1CCCCC2 | -5% | 0.72 | 
17 | CN1CCN(c2cc(N3C[C@@H]4[C@H]5CC[C@H](CC5)[C@@H]4C3)nc(N)n2)CC1 | 6% | -1.04 | 
18 | CCN(CC1CCOCC1)C(=O)Nc1ccc(C(=O)N2CCCC2)cc1C | -8% | 1.05 | 
19 | C#C[C@@H](NC(=O)NCCCc1c(C)nn(C)c1C)C(C)C | 0% | 0.04 | 
20 | O=C(NC[C@H]1CCCO1)N1CCN(c2cc3c(nn2)CCCC3)CC1 | -20% | 3.34 | 
21 | COCCN(CC(=O)Nc1nc(-c2ccccc2)cn1-c1ccc(C)c(F)c1)C(=O)COC | -10% | 1.34 | 
22 | Cc1cccnc1[C@@H](NC(=O)CCCn1cncn1)C1CC1 | -3% | 0.55 | 
23 | c1cc(-c2nc(-c3ccsc3)no2)n(C2CCCC2)n1 | -8% | 0.79 | 
24 | COc1cc(-c2noc(NCc3ccc4c(c3)OCO4)n2)sn1 | -9% | 1.21 | 
25 | CC(=O)N1CC[C@H](CN(C)Cc2ccc(OC(F)F)c(Cl)c2)C1 | -10% | 1.87 | 
26 | COc1cccc(Oc2nccn3c(=O)n(CC(=O)Nc4ccc5c(c4)OCCO5)nc23)c1 | -8% | 0.76 | 
27 | Cc1noc(C)c1NC(=O)[C@H]1CC(=O)N(c2ccccc2)C1 | 2% | -0.27 | 

Row | Compound | % Inhibition | Z score | % Inhibition (2 µM)
28 | CCOc1ccnc(N(C)CCc2ccccn2)n1 | -3% | 0.49 | 
29 | CN1CCc2ccc(NC(=O)NC[C@](C)(O)c3ccccc3Cl)cc21 | -2% | 0.44 | 
30 | Cc1ocnc1CNC(=O)[C@H]1CC(=O)N(c2ccc(F)cc2F)C1 | -5% | 0.77 | 
31 | C#Cc1cccc(N(C)C(=O)c2cc(S(=O)(=O)N(C)C)oc2C)c1 | 0% | 0.01 | 
32 | Cc1nc(-c2ccc(N3CCN(C(=O)NC4CCCCC4)CC3)cc2)no1 | 4% | -0.72 | 
33 | CC(NC1CCCC1(C)C)C(=O)N(C)C(C)C (configuration not stated) | -1% | 0.09 | 
34 | O=C1C2C(C(=O)N1c1ccc(Br)cc1)C2(c1ccccc1)c1ccccc1 (configuration not stated) | 1% | -0.14 | 
35 | CC(C(=O)N1CCN(C2CCNC(=O)CC2)CC1)C(C)(C)C (configuration not stated) | 4% | -0.39 | 
36 | CCC(c1cccs1)N1C(=O)[C@H]2CN(C)C[C@H]2C1=O (some centres not stated) | -12% | 1.44 | 
37 | Cc1ccncc1CC(=O)Nc1ccccc1NCC1CCCCC1 | -11% | 1.79 | 
38 | Cc1ncnc(N2CCC([C@H](C)N3CCN(C)CC3)CC2)c1C | -6% | 0.53 | 
39 | CN(C)C(=O)[C@H](NC(=O)Nc1ccc2c(c1)OCCCO2)c1ccccc1 | 5% | -0.55 | 
40 | CNC(=O)[C@@H](NC(=O)c1ccco1)C(C)C | -5% | 0.83 | 
41 | Cc1nc(CNC(=O)Nc2cccc3c2OC(C)(C)C3)sc1C | -9% | 1.14 | 
42 | COc1ccc(Oc2cc3c(cc2NS(=O)(=O)c2cc(OC)ccc2OC)n(C)c(=O)n3C)cc1 | -2% | 0.27 | 
43 | O=C(Nc1ncc(-c2ccccc2F)s1)N1CCC(O)CC1 | -3% | 0.33 | 
44 | CCOc1cccc(OCC)c2c(C)nc(C)c1-2 |  |  | 1% and -13%
45 | COc1ccc(C[C@H](N)C(=O)Nc2ccc(N(C)C)c(Cl)c2)cc1 | -5% | 1.04 | 
46 | O=C(N[C@@H]1CCCC[C@H]1OC(F)F)c1cnn2ncccc12 | -8% | 1.27 | 
47 | CN1c2ccccc2C(=O)NC12CCN(C(=O)Nc1cccc(Cl)c1)CC2 | -9% | 1.13 | 
48 | COC(=O)C1=C(C(=O)OC)SC(=C2C(=S)C(C)(C)N(C(=O)COc3ccc4ccccc4c3)c3ccccc32)S1 | 33% | -0.65 | 
49 | CCN(Cc1cnn(C)c1)Cc1cccc(OC)c1OC[C@@H](O)CN1CCOCC1 | -15% | 1.78 | 
50 | O=C(Nc1ccc(F)cc1Cl)c1cccc(S(=O)(=O)NCc2cccs2)c1 | 4% | -0.54 | 
51 | COc1cc(OC)nc(N2Cc3cnc(CC(C)C)nc3C2)n1 | 1% | -0.15 | 
52 | CCOCC(C)(C)NCC(=O)N1CCC(C(=O)N2CCCCCC2)CC1 | -4% | 0.5 | 
53 | Cc1csc(NC(=O)c2cc(O)ncn2)n1 | -11% | 1.96 | 
54 | Cc1ccc(-c2cc(N)n(CC3CCCCC3)n2)cc1 | -12% | 1.6 | 
